Values come from read counts of a selection and are noisy.
test system: NB7; experiment: fold depletion of shRNA, plasmid library share / infected cells without Dox share (9 days) (ratio); higher = more depleted after infection (more toxic, leaky expression from a Tet-inducible vector; NB7 is a neuroblastoma line without caspase-8); details: shRNA pool: CD95L ORF + CD95L 3'UTR + Venus libraries
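Also: shRNA barcodes quantified by deep sequencing of PCR amplicons from cellular DNA, counts expressed as percent of each subpool, ratio averaged over two biological duplicates.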

| Sequence | fold depletion of shRNA |
| --- | --- |
| GGATCTGGTGATGATGGAGGG | 3.99 |
| GCACCACCGGCAAGCTGCCCG | 0.692 |
| CTGTGTCTCCTTGTGATGTTT | 3.72 |
| TGCCCGACAACCACTACCTGA | 0.898 |
| GTGTGTGTGTGTGTGTGTGTG | 2.88 |
| ACGTTTTTCGGCTTATATAAG | 0.687 |
| AAGATCCGCCACAACATCGAG | 0.791 |
| TTGTGATGTTTTTCATGGTTC | 1.07 |
| GCACTACTGGGCAGATGTGGG | 0.872 |
| CATGAGGAACTCTAAGTATCC | 0.856 |
| CTGAGGAAAGTGGCCCATTTA | 3.56 |
| ATATGACGGAAGAACATAGAA | 0.615 |
| GGAAGAACATAGAACTCTGGG | 0.621 |
| TCAGCTACTAATGATGTTTTC | 1.26 |
| CTGGGCCCCTCCAGGCACAGT | 0.194 |
| GTGAGGGTCTTCTTACATGCA | 0.239 |
| CTGAAGAAGAGAGGGAACCAC | 0.722 |
| TTCTGGTTGCCTTGGTAGGAT | 4.35 |
| CTTCACTTCTAAATGCATATC | 0.947 |
| AGATATTGTGAAGTACATATT | 0.518 |
| GGGCCTTGCTACCTCAAGGGG | 0.468 |

| Sequence | fold depletion of shRNA |
| --- | --- |
| CGCCGAGGTGAAGTTCGAGGG | 0.876 |
| TTACAGGCACCGAGAATGTTG | 4.69 |
| CCGCCGCCGGGATCACTCTCG | 0.868 |
| CTACTAATGATGTTTTCCTAT | 0.606 |
| AGAACATAGAACTCTGGGCTG | 2.7 |
| TGAGAGTATTTAGGCAGATTG | 2.77 |
| GAAGCTGATCTGCACCACCGG | 0.651 |
| TTCCACCTACAGAAGGAGCTG | 2.15 |
| CACATGAAGCAGCACGACTTC | 1.57 |
| CACAGCACAGGCCTGTGTCTC | 1.64 |
| ATCCTGGTCGAGCTGGACGGC | 1.39 |
| GGCTTGCATAATAAGCTAAAG | 2.45 |
| TGTACTTTGTATATTCCAAAG | 0.528 |
| GATGTTTTCCTATAATATAAT | 0.825 |
| GCAGTGCTTCGCCCGCTACCC | 0.442 |
| CAACTTCAAGATCCGCCACAA | 2.79 |
| GCGAGGGCGATGCCACCTACG | 0.707 |
| ACCTTTTAACTCACCTCTCAA | 1.78 |
| CAGGAGCGCACCATCTTCTTC | 2.08 |
| CATGCCTCTGGAATGGGAAGA | 0.751 |
| TACTTCCGGGGTCAATCTTGC | 1.06 |

same assay, conditions: shRNA pool: CD95 ORF + CD95 3'UTR + Venus libraries

| Sequence | fold depletion of shRNA |
| --- | --- |
| AATACTTAATAGTCCACCAAA | 1.36 |
| GAAGGAGTACACAGACAAAGC | 1.02 |
| GCACCACCGGCAAGCTGCCCG | 0.549 |
| TGCCCGACAACCACTACCTGA | 0.576 |
| CTTTGTACTCTTGCAGAGAAA | 0.709 |
| TATTGGTGTCATATTATACAA | 0.821 |
| AGTATATGTATTTGAGTGCAG | 1.15 |
| AAGATCCGCCACAACATCGAG | 0.804 |
| TCTTCTTTTGCCAATTCCACT | 1.25 |
| GTGTTTGGAATTATAAAATAT | 0.98 |
| AGCAACACCAAGTGCAAAGAG | 1.55 |
| AGAGTATTACTAGAGCTTTGC | 1.83 |
| CAGAAAACATGCAGAAAGCAC | 2.26 |
| ATACCAAGTGCAGATGTAAAC | 0.993 |
| AAGGACATTACTAGTGACTCA | 2.58 |
| TTCTGCCATAAGCCCTGTCCT | 1.42 |
| AGAGCCAACATATTTGTAGAT | 3.23 |
| ATGTTAGTACAAATGTCTATC | 0.909 |
| TTCGAGGGCGACACCCTGGTG | 1.2 |
| GGCTGTAAATACTGCTTGGTT | 1.95 |

| Sequence | fold depletion of shRNA |
| --- | --- |
| GAGGGCGATGCCACCTACGGC | 2.29 |
| TTGTCTTCTTCTTTTGCCAAT | 0.804 |
| TACTACTATCCTACGTTTAAA | 0.777 |
| CCAAACTTTTTTTGTAACTCT | 1.22 |
| TTGGGGTGGCTTTGTCTTCTT | 0.242 |
| TTTTTGTAACTCTACTGTATG | 0.888 |
| TTTATCTGATGTTGACTTGAG | 1.09 |
| CGCCGAGGTGAAGTTCGAGGG | 1.17 |
| CCCCCAAACATGGAAATATCA | 1.32 |
| CTCATCTTAATGGCCTAATGC | 1.5 |
| AACAAATTCAGTTCTGAGTAT | 0.98 |
| AATCATCAAGGAATGCACACT | 1.62 |
| GAAAACAAACTTCATCAAGAG | 1.41 |
| CCGCCGCCGGGATCACTCTCG | 0.971 |
| TGTAGTATGAATGTAATCAGT | 2.51 |
| CAATGTCCAAGACACAGCAGA | 2.39 |
| CAGAGAAAGTAGCTTTGTGAC | 2.42 |
| TGTTTATAACTCTGAGAAGAT | 0.684 |
| ACTGCACCCGGACCCAGAATA | 1.51 |
| TGACTGACATCAACTCCAAGG | 2.67 |

| Sequence | fold depletion of shRNA |
| --- | --- |
| TACACAGACAAAGCCCATTTT | 0.567 |
| GAAATTCTAGCCTGGTTTGGA | 1.21 |
| GCCTCTAAATTACCTCTGATA | 1.79 |
| GAAGCTGATCTGCACCACCGG | 0.644 |
| CCAGATCTAACTTGGGGTGGC | 0.802 |
| CACATGAAGCAGCACGACTTC | 1.18 |
| ATTTTTTTGCCCCTTGTGTTT | 4.88 |
| ATCCTGGTCGAGCTGGACGGC | 1.29 |
| ACTTGGGGTGGCTTTGTCTTC | 2.34 |
| TTATCGTCCAAAAGTGTTAAT | 16.6 |
| CATGACACTAAGTCAAGTTAA | 0.694 |
| ACTTTGTTTATAACTCTGAGA | 0.777 |
| GCAGTGCTTCGCCCGCTACCC | 0.911 |
| CCCACCCCCGAAAATGTTCAA | 4.99 |
| CAACTTCAAGATCCGCCACAA | 1.45 |
| GGATTTTTTTGCCCCTTGTGT | 5.65 |
| GCGAGGGCGATGCCACCTACG | 1.25 |
| CAGGAGCGCACCATCTTCTTC | 1.17 |
